According to PubChem BioAssay AID493014 (National Center for Advancing Translational Sciences (NCATS), 2011):
Screen size: about 340,000 compounds; about 170 (0.05%) were called active. Another 26% or so got no clear call; they are omitted. Calls follow the shape of the dose curve; as a rule, active = well fitted inhibition curve with a large enough effect in the signal ratio, with a control signal flat (not every such curve was filed as active); inconclusive = small, poorly fitted or top-dose-only effect, or effect the other way, or a change in a side signal; inactive = flat fitted curve, though single readings scatter; the % refers to the signal ratio. Only a part is listed here, and it is no random draw.

Experiment: qHTS Assay to Find Inhibitors of Chronic Active B-Cell Receptor Signaling
Conditions: ABC-DLBCL IkBa-CBG/CBR reporter, luminescence ratio (green luciferase fused to IkBa over red control in TMD8 lymphoma cells), 4 h; series mostly up to 46.1 µM; activity change, negative = inhibition: at the top concentration
Text: NIH Molecular Libraries Probe Production Network [MLPCN] NIH Chemical Genomics Center [NCGC] MLPCN Grant: 1 R03 DA031086-01A1 PI Name: Dr. R. Eric Davis NCGC Assay Overview: Diffuse large B-cell lymphoma (DLBCL) is the most common category of non-Hodgkin lymphoma, with ~20,000 new cases per year in the United States. DLBCL should be regarded as a collection of different neoplasms. Microarray gene expression analysis has defined two principal types of DLBCL, named for their similarity to normal B cell stages or activation states: a germinal center B-cell (GCB) type, and an activated B-cell (ABC) type. In ABC-DLBCL, a constitutive high-level activity of the NF-kappaB family of transcription factors has been observed (1) and NF-kappaB target genes are more highly expressed in ABC primary tumors than in GCB tumors. Functional studies have shown a constitutive high-level activity of the IkappaB (inhibitor of kappa-B) kinase (IKK) complex. […] Further analysis of DLBCL primary tumors for NF-kappaB target gene expression imply that although CARD11 is required for constitutive IKK activity in all ABC-DLBCL lines, mutations in CARD11 may be the root cause of IKK activation only in lines or tumors with such mutations. In other words, CARD11 mutations may explain NF-kappaB activation in only 10% of ABC-DLBCL cases. […] This process has been termed 'chronic active BCR signaling' (CABS). The goal of this screen is to find small-molecule inhibitors of the CABS pathway found in ABC-DLBCL lines using a cell-based assay that measures IkappaBalpa stability, which has already been extensively validated in the OCI-Ly3 line (PubChem AID:445; REF: 4). […] The assay uses green (CBG68) and red (CBR) emitting beetle luciferases [Chroma-GloTM developed by Promega Corp.] where the green luciferase is fused to IkappaBalpha and the red luciferase is present in its native state. Both luciferase genes are stably present in the TMD8 human ABC DLBCL cell line, but their expression is under the control of tetracycline-inducible promoters. Following the addition of doxycycline to induce expression of the luciferases, the green luminescence in control cultures rises only slowly because the CBG fusion partner IkappaBalpha is targeted by IKK activity for rapid degradation. In contrast, green luminescence rises rapidly in the presence of proteasome inhibitors or IKK inhibitors. The rise in red luminescence of CBR is not affected by proteasome or IKK inhibitors, and serves as normalization for cell number and nonspecific effects. Compounds were screened as a concentration-titration series that ranged from 46 uM to 3 nM.
NCGC Assay Protocol Summary: Cells were seeded in 1536-well plates at 5000 cells/4uL in IMDM medium containing 0.5% FBS, w/o phenol red, 1% penicillin/streptomycin. Then, 23 nL of compounds or DMSO were delivered to each well using a pin tool. One uL 20ng/ml doxycycline was then dispensed into white solid 1536-well plates and the plates were incubated at 37C/5% C02 in a cell incubator for 4 hrs. Then 4 uL luminescent substrate mix (in-house prepared: 150 mM Tris-Cl, pH 7.6, 3 mM MgCl2, 1% Triton X-100, 5 mM DTT, 0.2 mM CoA, 0.15 mM ATP, 5 mM D-luciferin, final concentrations) was added to each well. The plate was incubated at r.t. for 10-15 min. The plates were measured on a ViewLux plate reader for green luminescence (540/20 nm filter) and red luminescence (618/8 nm filter). The green and red luminescent signals were corrected for red and green luminescence filter overlap using previously determined filter calibration constants (determined using the procedure outlined in the Promega Technical Manual; REF 4). The %Activity was determined from the ratio of corrected green/red luminescent values. MG132 were used as control. […] Red luminescent %Activity was normalized to the difference between red luminesence in basal cells (0%Activity) and zero luminescence (-100% Activity). […]
Potency is read from the fitted curve at half-maximal effect.

SMILES | activity change, negative = inhibition | Potency
CCOC(=O)[C@@H]1[C@H]2COc3ccccc3[C@@H]2N2C(=O)N(c3cccc(F)c3)C(=O)[C@@]12C | inactive: 0.793% | –
CCOC(=O)[C@@H]1[C@H]2COc3cc(OC)ccc3[C@H]2N2C(=O)N(c3cccc(F)c3)C(=O)[C@]12C | inactive: 0.46% | –
COc1ccc(S(=O)(=O)NC(C)C)cc1-n1cnnn1 | inactive: -0.514% | –
COCCNC(=O)CSc1nc2cc3c(cc2c(=O)n1CCCC(=O)NCCc1ccc(OC)c(OC)c1)OCO3 | inactive: 15.6% | –
CCN1C(=NCc2ccco2)N[C@@H](c2cccc(F)c2)C(C(=O)OC)=C1C | inactive: -1.19% | –
Cc1ccc(C(=O)C[n+]2cc(-c3ccccc3)n3c2CCCCC3)cc1 | inactive: -6.47% | –
COc1cccc(/C=N/NC(=O)c2cc3c(OC)ccc(OC)c3[nH]2)c1O | – | active: 3.16 µM
CC1=C(C(=O)OCC(C)C)C23C(=O)c4ccccc4C2(O1)OC(N)=C3C#N (stereo not given) | inactive: 9.39% | –
CCCOc1ccccc1C1CC(=O)Nc2cc3c(cc21)OCO3 (stereo not given) | – | active: 23.1 µM
COc1cc(C(=O)OC(C)CN2CCOCC2)cc(OC)c1OC (stereo not given) | inactive: -0.337% | –
COc1ccc(N=C2NC(=O)/C(=C\c3ccco3)S2)cc1 | inactive: -8.08% | –
O=C1NC[C@@H](c2ccccc2)OC(=O)[C@H](Cc2ccc(F)cc2)C/C=C\C[C@H]1CC(=O)N(CCO)Cc1ccccc1 | inactive: 2.84% | –
C[C@H](CO)N1C[C@H](C)[C@@H](CN(C)C(=O)Nc2ccc3c(c2)OCO3)Oc2ccc(NC(=O)C3CCCCC3)cc2C1=O | inactive: -5.67% | –
C[C@H](NC(=O)c1nc[nH]c1C(=O)N1CCN(c2ccccc2)CC1)c1ccccc1 | inactive: -6.19% | –
COC(=O)/C(=C/c1c[nH]c2ccccc12)NC(C)=O | inactive: 4.37% | –
Cn1ccc2cc(-c3csc(N4CCC(C(N)=O)CC4)n3)ccc21 | inactive: 3.68% | –
CCn1c(SCC(=O)N/N=C/C=C\c2ccco2)nc2ccccc21 | inactive: -16.9% | –
CC(C)(C)[C@@H]1C=C(C(=O)N2CCN(Cc3ccccc3)CC2)O[C@H](OCCCCO)C1 | inactive: -11.5% | –
Fc1ccccc1-c1ccc(/C=N/Nc2nc3ccccc3[nH]2)o1 | – | active: 23.1 µM
Cc1cccc(C(=O)NC(C(=O)Nc2cccc(S(=O)(=O)N3CCCC3)c2)C(C)C)c1 (stereo not given) | inactive: -0.302% | –

SMILES | activity change, negative = inhibition | Potency
C[C@H]1COC(=O)[C@H](Cc2ccc(F)cc2)C/C=C\C[C@@H](CC(=O)NCCO)C(=O)N1 | inactive: -1.15% | –
CCO[C@@H]1OC(C(=O)Nc2ccccc2)=C[C@H](c2ccc(C(F)(F)F)cc2)[C@H]1CCCO | inactive: 15.3% | –
COc1ccc(OC)c(S(=O)(=O)NCC(c2ccco2)S(=O)(=O)c2ccccc2)c1 (stereo not given) | inactive: 1.01% | –
CCCCCCNC(=O)N[C@H](C(=O)NCCC[C@H]1CN2C(=NC[C@H]2C)N1CCC(c1ccccc1)c1ccccc1)C(C)O (stereo not given in full) | – | active: 17.8 µM
C[C@]12C=CC(=O)C=C1CC[C@@H]1[C@@H]2C(=O)C[C@@]2(C)[C@H]1CC[C@]2(O)C(=O)CO | inactive: -15.2% | –
CCN(CC)S(=O)(=O)c1cccc(C(=O)NC(C(=O)NC2=NCCS2)C(C)C)c1 (stereo not given) | inactive: -0.862% | –
COC(C[C@@H]1O[C@@H]1[C@@H](O)COCc1ccccc1)OC | inactive: 0.559% | –
O=C(NC1CC1)C1=C[C@@H](c2c[nH]c3ccccc23)C[C@@H](OCc2ccc(CO)cc2)O1 | inactive: -3.84% | –
CC(C)[C@H](NC(=O)N1CCn2c1nc1ccccc12)C(=O)N[C@@H](C(=O)O)c1ccccc1 | inactive: -0.232% | –
CC(C)(C)OC(=O)C[C@@H]1C/C=C\C[C@H](CC(=O)N(CCO)Cc2ccccc2)C(=O)NC[C@@H](c2ccccc2)OC1=O | inactive: 3.74% | –
C=CCC[C@@H](Cc1ccc(F)cc1)C(=O)OC[C@@H](Cc1c[nH]c2ccccc12)NC(=O)[C@@H](CC=C)CC(=O)N[C@@H](CO)Cc1ccccc1 | inactive: -0.299% | –
CS(=O)(=O)Nc1cccc(C(=O)CC2(O)C(=O)Nc3ccc(Br)cc32)c1 (stereo not given) | inactive: -15.1% | –
C[C@@H]1COC(=O)[C@H](CC(=O)OC(C)(C)C)C/C=C\C[C@H](CC(=O)NCCO)C(=O)N1 | inactive: 2.89% | –
C=CC[C@H](CC(=O)NCCO)C(=O)N[C@H](COC(=O)[C@@H](CC=C)CC(=O)OC(C)(C)C)Cc1c[nH]c2ccccc12 | inactive: -0.527% | –
CN(C)c1cc2c(cc1NS(=O)(=O)c1ccccc1)n(C)c(=O)n2C | inactive: -18.4% | –
C[C@@H]1COC(=O)[C@@H](CC(=O)OC(C)(C)C)C/C=C\C[C@@H](CC(=O)N[C@H](CO)Cc2ccccc2)C(=O)N1 | inactive: 0.625% | –
CCCSc1nnc(Sc2nnnn2-c2ccccc2)s1 | – | active: 9.2 µM
COC(=O)C1=C(C)N(Cc2ccccc2)C(=NCc2ccccc2)N[C@H]1c1ccccc1 | inactive: 2.13% | –
O=C1c2c(O)cc(O)cc2O[C@H](c2ccc(O)c(O)c2)[C@H]1O | inactive: -18.6% | –
C[C@H](CO)N1C[C@H](C)[C@@H](CN(C)S(=O)(=O)c2ccccc2)Oc2ccc(NC(=O)C3CCCCC3)cc2C1=O | inactive: -4.17% | –
